Measurements as given in a compilation of properties of binary mixtures (doi:10.1007/s10953-012-9937-x).
The densities may have been worked out from excess volumes.

Test: xn = mol fraction of the nth substance listed
Conditions: 298.15 K, 101 kPa

CCOC(C)=O + CCCCCCCCn1cc[n+](C)c1.F[B-](F)(F)F
mass density (x1 = 1): 894.5 kg/m3

CCC(C)=O + CCCCCCCCn1cc[n+](C)c1.F[B-](F)(F)F
mass density (x1 = 1): 800 kg/m3

CCCCCCCCn1cc[n+](C)c1.F[B-](F)(F)F + CCCOC(C)=O
mass density (x2 = 0): 1105 kg/m3 | mass density (x2 = 0.1006): 1095.6 kg/m3 | mass density (x2 = 0.197): 1085.5 kg/m3 | mass density (x2 = 0.2972): 1073.5 kg/m3 | mass density (x2 = 0.4992): 1042.6 kg/m3 | mass density (x2 = 0.6013): 1022.3 kg/m3 | mass density (x2 = 0.6504): 1011 kg/m3 | mass density (x2 = 0.7065): 996.6 kg/m3 | mass density (x2 = 0.7992): 968.4 kg/m3 | mass density (x2 = 0.9043): 928.2 kg/m3 | mass density (x2 = 0.9529): 905.9 kg/m3

CCCOC(C)=O + CCCCCCCCn1cc[n+](C)c1.F[B-](F)(F)F
mass density (x1 = 1): 881.2 kg/m3

CCCCCCCCn1cc[n+](C)c1.F[B-](F)(F)F + CCCCOC(C)=O
mass density (x2 = 0): 1105 kg/m3 | mass density (x2 = 0.1989): 1082 kg/m3 | mass density (x2 = 0.3002): 1067.5 kg/m3 | mass density (x2 = 0.3991): 1051.8 kg/m3 | mass density (x2 = 0.502): 1032.8 kg/m3 | mass density (x2 = 0.5548): 1021.8 kg/m3 | mass density (x2 = 0.6024): 1010.9 kg/m3 | mass density (x2 = 0.654): 998.5 kg/m3 | mass density (x2 = 0.7075): 984.2 kg/m3 | mass density (x2 = 0.8007): 955.7 kg/m3 | mass density (x2 = 0.95): 899.2 kg/m3

COC(C)=O + CCCCCCCCn1cc[n+](C)c1.F[B-](F)(F)F
mass density (x1 = 1): 926.9 kg/m3

CCCCCCCCn1cc[n+](C)c1.F[B-](F)(F)F + CCOC(C)=O
mass density (x2 = 0): 1105 kg/m3 | mass density (x2 = 0.1092): 1096.9 kg/m3 | mass density (x2 = 0.2953): 1081 kg/m3 | mass density (x2 = 0.4999): 1054.7 kg/m3 | mass density (x2 = 0.5507): 1046.5 kg/m3 | mass density (x2 = 0.7012): 1015.5 kg/m3 | mass density (x2 = 0.9005): 948.6 kg/m3

CCCCCCCCn1cc[n+](C)c1.F[B-](F)(F)F + CCC(C)=O
mass density (x2 = 0): 1105 kg/m3 | mass density (x2 = 0.209): 1081.1 kg/m3 | mass density (x2 = 0.2713): 1073.2 kg/m3 | mass density (x2 = 0.3991): 1052.8 kg/m3 | mass density (x2 = 0.5032): 1032.6 kg/m3 | mass density (x2 = 0.551): 1021.5 kg/m3 | mass density (x2 = 0.6006): 1009.1 kg/m3 | mass density (x2 = 0.6442): 996.6 kg/m3 | mass density (x2 = 0.9518): 844.5 kg/m3

CCCCCCCCn1cc[n+](C)c1.F[B-](F)(F)F + COC(C)=O
mass density (x2 = 0): 1105 kg/m3 | mass density (x2 = 0.1173): 1099.8 kg/m3 | mass density (x2 = 0.2964): 1088.9 kg/m3 | mass density (x2 = 0.4063): 1080.1 kg/m3 | mass density (x2 = 0.4511): 1076.1 kg/m3 | mass density (x2 = 0.4964): 1071.4 kg/m3 | mass density (x2 = 0.6056): 1057.6 kg/m3 | mass density (x2 = 0.6519): 1050.4 kg/m3 | mass density (x2 = 0.7027): 1041.2 kg/m3 | mass density (x2 = 0.8989): 983.9 kg/m3
